Experimental findings from ChEMBL document CHEMBL1201862, “PubChem BioAssay data set” (2004) are described below.

Molecules are shown by their SMILES.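 Where inhibition never reached the appropriate level, the endpoint shown equals the highest concentration tested. Otherwise, values were interpolated linearly from a five-concentration, 48-hour dose response in 96-well plates. GI50: concentration for 50% inhibition of growth.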 Calls of active or inactive are those of the source. Cut-off read from the data, not from the text of the source: active = GI50 up to about 1.1 µM and inactive = higher.

For this assay, the system named is NCI-H322M. Kind of assay: NCI tumour cell line growth inhibition, 48 h.
With `O=C(NN1C(=O)C(Cl)C1c1ccc(O)cc1)c1ccccc1O` (stereo not given), the GI50 is inactive: 21.3 µM.

With `COc1c2occc2c(N)c2ccc(=O)oc12`, the GI50 is inactive: > 100 µM.

Turning to `CC1(C)CC(=O)c2c(oc3cc(O)c(O)cc23)C1`, the GI50 is inactive: 51.6 µM.

Regarding `CCOC(=O)c1c(O)nc(O)c(CC)c1C`, the GI50 was inactive: > 100 µM.

As for `Cc1cc(NC2=CC(=O)C(=O)c3ccccc32)no1`, the GI50 was inactive: 16.9 µM.

As for `O=C1c2cccc(NCCCNCCO)c2C(=O)c2cccc(NCCCNCCO)c21`, the GI50 was inactive: 1.49 µM.

Consider `N#C/C(=C\Nc1ccccn1)C(=O)C1CC1`, for which the GI50 was inactive: > 100 µM.

On to `C=C(Cl)/C(=C\Cl)CCC(Br)C(C)C` (stereo not given), for which the GI50 is inactive: > 100 µM.

For the compound `CCCCCC(=O)NC(=S)Nc1nnn[nH]1`, the GI50 is inactive: > 100 µM.

Turning to `COc1ccc(C2OC2C(=O)C23CC4CC(CC(C4)C2)C3)cc1` (stereo not given), the GI50 is inactive: > 100 µM.

Consider `CCOC(=O)c1c(-c2ccc(Br)cc2)ccn1C`, for which the GI50 was inactive: > 10 µM.

Turning to `O=C1CC2(CCN(CC3COc4ccccc4O3)CC2)C(=O)N1N1CCCCCC1` (stereo not given), the GI50 was inactive: > 100 µM.

On to `CC/C=C/C[C@H](O)[C@H]1C[C@H]2O[C@H](CC(=O)OC)C[C@H]2O1`, for which the GI50 is inactive: > 100 µM.

Consider `C=CCOC(=O)C1=C(C)N=C2N[C@H](CCCCCCCCC)C[C@@H]3CCC1N23` (stereo not given in full), for which the GI50 was inactive: 36 µM.

With `CCOC(=O)c1s/c(=N\Nc2nc3ccccc3cc2C2OCCO2)n(Cc2ccccc2)c1C`, the GI50 was inactive: > 100 µM.

Consider `C=CCCC1CCCNC1=S` (stereo not given), for which the GI50 was inactive: > 100 µM.

Turning to `COP(=O)(C(/C=C/c1ccccc1)OC(C)=O)[C@@H]1CCCC[C@H]1N(CC(C)(C)C)C(C)=O` (stereo not given in full), the GI50 is inactive: 23.4 µM.

For the compound `Cc1cn2c(C)csc2c1P(=O)(OC(C)C)OC(C)C`, the GI50 was inactive: > 100 µM.

For `N=C(N)NCC(N)C(=O)O` (stereo not given), the GI50 was inactive: > 100 µM.

For `O=c1[nH]c(=O)n(C2CC(O)C(CO)O2)cc1OCc1ccccc1` (stereo not given), the GI50 was inactive: > 100 µM.

For the compound `CCN(CC)CCNc1n[n+]([O-])c2cc([N+](=O)[O-])ccc2[n+]1[O-]`, the GI50 was inactive: 2.01 µM.

For `CN(C)C(=O)O/N=C1/C(=C2/C(=O)Nc3ccccc32)Nc2ccccc21`, the GI50 is inactive: 10.4 µM.

Regarding `CCc1nc(N)c2nc(-c3ccc(C#N)cc3)oc2n1`, the GI50 is inactive: > 100 µM.

Regarding `CC1(C)C[C@H]2[C@H](O)C(CO)=C3C(=O)[C@@H](O)[C@]3(C)[C@H]2C1`, the GI50 is inactive: > 100 µM.

As for `Cc1nc2c(n1C(C)(C)C)C(=O)c1ccccc1C2=O`, the GI50 is inactive: > 100 µM.

Consider `COC(=O)C(Cc1ccc(N(C)C)cc1)(NC(=O)c1ccccc1)P(=O)(OC)OC` (stereo not given), for which the GI50 was inactive: > 100 µM.

Regarding `O=C(O)COc1ccc(C(=O)/C(SS/C(C(=O)c2ccc(OCC(=O)O)c(Cl)c2Cl)=C2\C=C(c3ccccc3Cl)SS2)=C2/C=C(c3ccccc3Cl)SS2)c(Cl)c1Cl`, the GI50 was inactive: 78.7 µM.

As to `C/C(=C\c1ccccc1)C(O)C(=O)c1nc2ccc(Cl)cc2nc1O` (stereo not given), the GI50 is inactive: > 100 µM.

As to `CC(C)C(=O)[C@@]1(C)SC[C@H]2CCN=C21`, the GI50 was inactive: > 100 µM.

As to `Nc1ccc(S2(c3ccc(N)cc3)C=C(c3ccccc3)C(c3ccccc3)=C2)cc1`, the GI50 is inactive: > 41.1 µM.

Consider `COc1c2nc(CCl)[nH]c(=O)c2c(OC)c2nc(CCl)[nH]c(=O)c12`, for which the GI50 was inactive: > 100 µM.

As for `Nc1ncc(C=O)c(NCC2(CO)CCC2)n1`, the GI50 was inactive: > 100 µM.

As to `C=C1CC2[C@H](C)C(=O)CCC2(C)C2=C1C1CCC(C(C)CCC(=C)C(C)C(=O)O)C1(C)CC2=O` (stereo not given in full), the GI50 is inactive: > 100 µM.

Take `Cn1c(=O)[nH]c2c(c1=O)C(=O)CN2`: the GI50 was inactive: > 100 µM.

On to `O=C1c2ccccc2C(=O)N1c1nc(-c2ccc(Cl)cc2)cc(N2N=C(c3ccc(Br)cc3)CC2c2ccccc2)n1` (stereo not given), for which the GI50 was inactive: 18.5 µM.

For the compound `COC(=O)[C@@]1(C)C(=O)CC[C@@H]1C=O`, the GI50 was inactive: > 100 µM.

Take `CN1CCCC2[C@@H]3CCC4=C(O)C(=O)CC[C@]4(C)C3CC[C@@]21C` (stereo not given in full): the GI50 is inactive: > 100 µM.

Take `COc1ccccc1N1C(=O)/C(=C/c2ccc(N(CCC#N)CCC#N)cc2C)N=C1c1cc([N+](=O)[O-])ccc1Cl`: the GI50 was inactive: > 100 µM.

As to `C=CC(C)(C)N[C@@H](C(=O)N1CCC[C@H]1c1nc(-c2nc(C(=O)OCC=C(C)C)c(C)o2)c(C)o1)C(C)C`, the GI50 is inactive: 24.4 µM.

Turning to `CC(C)(C)c1nc2c(o1)C(=O)c1ccccc1C2=O`, the GI50 was inactive: 3.18 µM.

In the case of `COc1ccc(N/N=C/C2=CC(C)(C)C(C#N)(C#N)C(O)=C2C#N)cc1`, the GI50 was inactive: 43.4 µM.

Regarding `CC1=C(C)CC2(C=C(C(C)(C)C)C(=O)C(C(C)(C)C)=C2)SC1`, the GI50 was inactive: 22.5 µM.

On to `CC1OC(OC2C(O[C@H]3CC[C@@]4(C)[C@@H](CC[C@@H]5[C@@H]4CC[C@]4(C)[C@@H]6[C@H](C[C@@H]54)O[C@]4(CC[C@@H](C)CO4)[C@H]6C)C3)OC(CO)C(OC3OC(CO)C(O)C(OC4OCC(O)C(O)C4O)C3OC3OCC(O)C(O)C3O)C2O)C(O)C(O)C1O` (stereo not given in full), for which the GI50 is inactive: 1.29 µM.

Turning to `CC(C)(Oc1ccc2c(=O)cc(-c3ccccc3)oc2c1)C(=O)Nc1c(Cl)cccc1Cl`, the GI50 was inactive: > 100 µM.

For the compound `CC1(C)OC2C(O)CN3CCS[C@H]3C2O1` (stereo not given in full), the GI50 was inactive: > 100 µM.

On to `O=C(O)CCSCCCN1C(=O)c2ccccc2C1=O`, for which the GI50 was inactive: > 100 µM.

In the case of `O=C1C=C(Nc2ccc(Cl)cc2Cl)c2ccccc2C1=O`, the GI50 is inactive: 29.6 µM.

For `O=S1(=O)CS(=O)(=O)OCCO1`, the GI50 was inactive: 78.3 µM.

For `O=C(OCc1ccccc1)N1CCN(C(=O)OCc2ccccc2)CCN(C(=O)OCc2ccccc2)CCN(C(=O)OCc2ccccc2)CCN(C(=O)OCc2ccccc2)CC1`, the GI50 was inactive: > 100 µM.

As to `Clc1cccc(N/N=N/c2ccc(-c3nc4ccccc4s3)cc2)c1`, the GI50 is inactive: > 100 µM.

For `Cc1ccc(S(=O)(=O)OCC23CCC(C2)C2CC23)cc1` (stereo not given), the GI50 is inactive: > 100 µM.

As for `CCC/N=C/c1cc(Cc2ccc(O)c(/C=N/CCC)c2)ccc1O`, the GI50 was inactive: 12.2 µM.

For `CCOC(=O)CNC(SC)=C(C#N)C#N`, the GI50 was inactive: > 100 µM.

As for `CON(C)C(=O)CNC(=O)OCC1c2ccccc2-c2ccccc21`, the GI50 is inactive: > 100 µM.

Turning to `C=C1CC(C)(COc2ccc3ccc(=O)oc3c2)OC1=O` (stereo not given), the GI50 was inactive: 13.3 µM.

In the case of `C=Cc1c(C)c(OC)cc2c1Oc1ccc(OC)c(C)c1CC2`, the GI50 is inactive: > 100 µM.

Turning to `O=C1C=CC(=O)c2c1ccc1c3ccccc3n(CCCCCn3c4ccccc4c4ccc5c(c43)C(=O)C=CC5=O)c21`, the GI50 was inactive: > 100 µM.

In the case of `CC1(C)C2CCC1(C)C(NC(=O)COCCOCC(N)=O)C2` (stereo not given), the GI50 was inactive: > 100 µM.

`Cc1cc(C)c(N)c(C)c1N`: the GI50 was inactive: > 100 µM.

Take `CC(C)C1/C(=N/O)CC(c2ccccc2)N(N=O)C1c1ccccc1` (stereo not given): the GI50 is inactive: 42 µM.

Regarding `O=C(c1cccs1)N(C(=S)N1CCN(c2ccccc2)CC1)c1ccccc1`, the GI50 is inactive: > 100 µM.

On to `COc1ccc(-c2nc(N)nc(-c3cc(C)ccc3O)c2Cl)cc1`, for which the GI50 was inactive: > 100 µM.

For the compound `CN(CCc1ccccn1)c1ccc2c(c1)C(=O)c1ccccc1-2`, the GI50 is inactive: 45.9 µM.

On to `Cc1cc(N(CCC#N)CCC#N)ccc1/N=N/c1cccc(Cl)c1`, for which the GI50 is inactive: > 100 µM.

Take `Cc1cccc(NC(=O)c2c(N)[n+]([O-])c3ccccc3[n+]2[O-])c1`: the GI50 is inactive: 17.1 µM.

As for `CCCCCn1cc2c3c(cccc31)C1C=C(C)CN(C)[C@@H]1C2.Cc1ccc(C(=O)OC(C(=O)O)C(OC(=O)c2ccc(C)cc2)C(=O)O)cc1` (stereo not given), the GI50 was inactive: 9.27 µM.

As for `CC1=CC(=O)/C(=C/N2CCNC2=S)C(=O)O1`, the GI50 is inactive: > 100 µM.

Turning to `Nc1ncnc2c1ncn2CC(OCP(=O)(O)O)Oc1ccccc1` (stereo not given), the GI50 is inactive: > 100 µM.

`CCOC(=O)C(CC(C)C)NC(=O)CSc1nnc(COc2ccc(Cl)cc2)n1-c1ccccc1` (stereo not given): the GI50 is inactive: 18.6 µM.

Regarding `Cn1c(=O)c(C(=O)NC(=O)OCc2ccccc2)cn(CCSCCOC(=O)NCCCCCCNC(=O)OCCSCCn2cc(C(=O)NC(=O)OCc3ccccc3)c(=O)n(C)c2=O)c1=O`, the GI50 is inactive: > 100 µM.

`C#Cc1cc(CN(CC(=O)OC(C)(C)C)CC(=O)OC(C)(C)C)nc(CN(CC(=O)OC(C)(C)C)CC(=O)OC(C)(C)C)c1`: the GI50 is inactive: 8.36 µM.

Take `O=C(NNc1ccc([N+](=O)[O-])cc1)C1OC(CO)C(O)C1O` (stereo not given): the GI50 is inactive: > 100 µM.

For the compound `Fc1c(F)c(C(F)(F)F)c(F)c(F)c1N/N=C\c1c[nH]c2ccccc12`, the GI50 was inactive: 5.7 µM.

On to `O=C(O)CC(O)(C(=O)O)C(O)C(=O)O` (stereo not given), for which the GI50 was inactive: > 1000 µM.

Take `COC(=O)[C@@]12C3=NO[C@]1(C(=O)OC)C(O[Si](C)(C)C(C)(C)C)C1OC(C)(C)OC1[C@@H]2[C@@H](OCc1ccccc1)CC3` (stereo not given in full): the GI50 is inactive: > 100 µM.

On to `Nc1ccc(-c2nc3cc(F)ccc3s2)cc1Cl`, for which the GI50 was inactive: 1.28 µM.

With `Cc1ccn2c(CCc3nnc4cc(C)ccn34)nnc2c1`, the GI50 is inactive: > 100 µM.

Take `O=C(O)c1cc2ccccc2c(/N=N/c2ccc(S(=O)(=O)Nc3nccs3)cc2)c1O`: the GI50 is inactive: > 100 µM.

On to `CC1(C)C[C@H]2C3=CC[C@@H]4[C@@]5(C)CC[C@H](O)C(C)(C)[C@@H]5CC[C@@]4(C)[C@]3(C)C[C@@H](O)[C@@]23C[C@@H]1OC3=O`, for which the GI50 is inactive: > 100 µM.

As for `Cn1cnc([N+](=O)[O-])c1Sc1nccc(O)n1`, the GI50 was inactive: > 100 µM.
